Assay results as given in the supplement of paper PMC8728848.
Some of the results follow.

Experiments:
Test in all cases: glycan array binding signal (z-score within array); higher = stronger binding
Details in all cases: glycan notation: IUPAC condensed, linker removed
[1] = target: Gal(b1-3)[Fuc(a1-4)]GlcNAc(b1-2)Man(a1-3)[Gal(b1-3)[Fuc(a1-4)]GlcNAc(b1-2)Man(a1-6)]Man(b1-4)GlcNAc(b1-4)[Fuc(a1-6)]GlcNAc
Summary of the method: (§1)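 From the Consortium for Functional Glycomics database, 3228 arrays were curated, keeping only those whose protein sequence was available. Binding is given as a within-array Z-score averaged across arrays sharing a protein sequence and across linkers. Negative Z-scores can be read as non-binding.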

[2] = target: Gal(b1-3)[Fuc(a1-4)]GlcNAc(b1-3)Gal(b1-3)[Fuc(a1-4)]GlcNAc
Summary of the method: as §1

[3] = target: Gal(b1-3)[Fuc(a1-4)]GlcNAc(b1-3)Gal(b1-4)GlcNAc
Summary of the method: as §1

[4] = target: Gal(b1-3)[Fuc(a1-4)]GlcNAc(b1-3)Gal(b1-4)[Fuc(a1-3)]GlcNAc
Summary of the method: as §1

[5] = target: Gal(b1-3)[Fuc(a1-4)]GlcNAc(b1-6)GalNAc
Summary of the method: as §1

[6] = target: Gal(b1-3)[GlcNAc(b1-6)]GalNAc
Summary of the method: as §1

[7] = target: Gal(b1-3)[GlcNAc(b1-6)]GlcNAc
Summary of the method: as §1

[8] = target: Gal(b1-3)[Neu5Ac(a2-6)]GalNAc
Summary of the method: as §1

[9] = target: Gal(b1-3)[Neu5Ac(a2-6)]GlcNAc
Summary of the method: as §1

[10] = target: Gal(b1-3)[Neu5Ac(a2-6)]GlcNAc(a1-4)Gal(b1-4)Glc
Summary of the method: as §1

[11] = target: Gal(b1-3)[Neu5Ac(a2-6)]GlcNAc(b1-4)Gal(b1-4)Glc
Summary of the method: as §1

[12] = target: Gal(b1-3)[Neu5Ac(b2-6)]GalNAc
Summary of the method: as §1

[13] = target: Gal(b1-3)[Neu5Ac(b2-6)]GlcNAc
Summary of the method: as §1

[14] = target: Gal(b1-4)Gal
Summary of the method: as §1

[15] = target: Gal(b1-4)GalNAc(a1-3)[Fuc(a1-2)]Gal(b1-4)GlcNAc
Summary of the method: as §1

[16] = target: Gal(b1-4)GalNAc(b1-3)[Fuc(a1-2)]Gal(b1-4)GlcNAc
Summary of the method: as §1

[17] = target: Gal(b1-4)Glc
Summary of the method: as §1

[18] = target: Gal(b1-4)Glc6S
Summary of the method: as §1

[19] = target: Gal(b1-4)GlcNAc
Summary of the method: as §1

[20] = target: Gal(b1-4)GlcNAc(a1-6)Gal(b1-4)GlcNAc
Summary of the method: as §1

[21] = target: Gal(b1-4)GlcNAc(b1-2)Man
Summary of the method: as §1

[22] = target: Gal(b1-4)GlcNAc(b1-2)Man(a1-3)Man(b1-4)GlcNAc(b1-4)GlcNAc
Summary of the method: as §1

[23] = target: Gal(b1-4)GlcNAc(b1-2)Man(a1-3)[Gal(b1-4)GlcNAc(b1-2)Man(a1-6)]Man(b1-4)GlcNAc(b1-4)GlcNAc
Summary of the method: as §1

[24] = target: Gal(b1-4)GlcNAc(b1-2)Man(a1-3)[Gal(b1-4)GlcNAc(b1-2)Man(a1-6)]Man(b1-4)GlcNAc(b1-4)[Fuc(a1-6)]GlcNAc
Summary of the method: as §1

[25] = target: Gal(b1-4)GlcNAc(b1-2)Man(a1-3)[Gal(b1-4)GlcNAc(b1-2)Man(a1-6)][Gal(b1-4)GlcNAc(b1-4)]Man(b1-4)GlcNAc(b1-4)[Fuc(a1-6)]GlcNAc
Summary of the method: as §1

[26] = target: Gal(b1-4)GlcNAc(b1-2)Man(a1-3)[Gal(b1-4)GlcNAc(b1-2)Man(a1-6)][GlcNAc(b1-4)]Man(b1-4)GlcNAc(b1-4)[Fuc(a1-6)]GlcNAc
Summary of the method: as §1

[27] = target: Gal(b1-4)GlcNAc(b1-2)Man(a1-3)[GlcNAc(b1-2)Man(a1-6)]Man(b1-4)GlcNAc(b1-4)GlcNAc
Summary of the method: as §1

[28] = target: Gal(b1-4)GlcNAc(b1-2)Man(a1-3)[GlcNAc(b1-4)][Gal(b1-4)GlcNAc(b1-2)Man(a1-6)]Man(b1-4)GlcNAc(b1-4)GlcNAc
Summary of the method: as §1

[29] = target: Gal(b1-4)GlcNAc(b1-2)Man(a1-3)[Man(a1-6)]Man(b1-4)GlcNAc(b1-4)GlcNAc
Summary of the method: as §1

[30] = target: Gal(b1-4)GlcNAc(b1-2)Man(a1-6)Man(b1-4)GlcNAc(b1-4)GlcNAc
Summary of the method: as §1

[31] = target: Gal(b1-4)GlcNAc(b1-2)Man(a1-6)[GlcNAc(b1-2)Man(a1-3)]Man(b1-4)GlcNAc(b1-4)GlcNAc
Summary of the method: as §1

[32] = target: Gal(b1-4)GlcNAc(b1-2)Man(a1-6)[Man(a1-3)]Man(b1-4)GlcNAc(b1-4)GlcNAc
Summary of the method: as §1

[33] = target: Gal(b1-4)GlcNAc(b1-2)[Gal(b1-4)GlcNAc(b1-4)]Man(a1-3)[Gal(b1-4)GlcNAc(b1-2)Man(a1-6)]Man(b1-4)GlcNAc(b1-4)GlcNAc
Summary of the method: as §1

[34] = target: Gal(b1-4)GlcNAc(b1-2)[Gal(b1-4)GlcNAc(b1-4)]Man(a1-3)[Gal(b1-4)GlcNAc(b1-2)[Gal(b1-4)GlcNAc(b1-6)]Man(a1-6)]Man(b1-4)GlcNAc(b1-4)GlcNAc
Summary of the method: as §1

[35] = target: Gal(b1-4)GlcNAc(b1-2)[Gal(b1-4)GlcNAc(b1-4)]Man(a1-3)[GlcNAc(b1-4)][Gal(b1-4)GlcNAc(b1-2)Man(a1-6)]Man(b1-4)GlcNAc(b1-4)GlcNAc
Summary of the method: as §1

[36] = target: Gal(b1-4)GlcNAc(b1-2)[Gal(b1-4)GlcNAc(b1-4)]Man(a1-3)[GlcNAc(b1-4)][Gal(b1-4)GlcNAc(b1-2)[Gal(b1-4)GlcNAc(b1-6)]Man(a1-6)]Man(b1-4)GlcNAc(b1-4)GlcNAc
Summary of the method: as §1

[37] = target: Gal(b1-4)GlcNAc(b1-2)[Gal(b1-4)GlcNAc(b1-6)]Man(a1-6)[Gal(b1-4)GlcNAc(b1-2)Man(a1-3)]Man(b1-4)GlcNAc(b1-4)GlcNAc
Summary of the method: as §1

[38] = target: Gal(b1-4)GlcNAc(b1-2)[Gal(b1-4)GlcNAc(b1-6)]Man(a1-6)[Gal(b1-4)GlcNAc(b1-2)Man(a1-3)]Man(b1-4)GlcNAc(b1-4)[Fuc(a1-6)]GlcNAc
Summary of the method: as §1

B1: Epa7 (Candida glabrata), Q6DTM6_CANGB (protein)
chain: MGSSHHHHHHSSGLVPRGSHMKDDYSSFLSNNNLGWTDPTEFPLGCSPNVTTPKNGLSMELYSYDLRKNGSYPCWDAAYLDPNYPRTGYKSHRLLAKVDGVTGNINFYYHATKGCTPEIDHLPASYNYPKPLTMTNFTMLLYGYFKPKVTGYHTFTISADDLLFVNFGAGNAFDCCKRESSADDFGNYQAYAVWGSQTAKDDLTVHLDAGLYYPIRIFFNNREYDAELSLTLKTESDSNPVIDFSDYFYSFDDTKDGCPGLVSYDTS
glycan array binding signal (z-score) [1]: -0.144 | glycan array binding signal (z-score) [2]: -0.245 | glycan array binding signal (z-score) [3]: -0.264 | glycan array binding signal (z-score) [4]: -0.252 | glycan array binding signal (z-score) [5]: -0.168 | glycan array binding signal (z-score) [6]: 1.21 | glycan array binding signal (z-score) [7]: 0.08 | glycan array binding signal (z-score) [8]: 4.18 | glycan array binding signal (z-score) [9]: 2.5 | glycan array binding signal (z-score) [10]: -0.269 | glycan array binding signal (z-score) [11]: -0.198 | glycan array binding signal (z-score) [12]: 2.26 | glycan array binding signal (z-score) [13]: -0.19 | glycan array binding signal (z-score) [14]: -0.199 | glycan array binding signal (z-score) [15]: 0.016 | glycan array binding signal (z-score) [16]: 0.755 | glycan array binding signal (z-score) [17]: -0.199 | glycan array binding signal (z-score) [18]: 0.01 | glycan array binding signal (z-score) [19]: -0.07 | glycan array binding signal (z-score) [20]: 0.542 | glycan array binding signal (z-score) [21]: -0.105 | glycan array binding signal (z-score) [22]: -0.185 | glycan array binding signal (z-score) [23]: 1.78 | glycan array binding signal (z-score) [24]: -0.193 | glycan array binding signal (z-score) [25]: -0.207 | glycan array binding signal (z-score) [26]: -0.208 | glycan array binding signal (z-score) [27]: -0.18 | glycan array binding signal (z-score) [28]: -0.227 | glycan array binding signal (z-score) [29]: -0.174 | glycan array binding signal (z-score) [30]: -0.212 | glycan array binding signal (z-score) [31]: -0.215 | glycan array binding signal (z-score) [32]: -0.204 | glycan array binding signal (z-score) [33]: 0.223 | glycan array binding signal (z-score) [34]: 0.385 | glycan array binding signal (z-score) [35]: 0.044 | glycan array binding signal (z-score) [36]: 0.541 | glycan array binding signal (z-score) [37]: 0.121 | glycan array binding signal (z-score) [38]: 0.253
